The other results are listed elsewhere or left out.

Holding throughout (test): glycan array binding signal (z-score within array); higher = stronger binding
What all share (conditions): glycan notation: IUPAC condensed, linker removed

The target of experiment [1] is Neu5Gc(a2-8)Neu5Gc(a2-3)Gal(b1-4)GlcNAc(b1-3)Gal(b1-4)GlcNAc. The method in brief: (§1)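 From the Consortium for Functional Glycomics database, 3228 arrays were curated, keeping only those whose protein sequence was available. Binding is given as a within-array Z-score averaged across arrays sharing a protein sequence and across linkers. Negative Z-scores can be read as non-binding.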

Experiment [2] deals with Neu5Gc(a2-8)Neu5Gc(a2-6)Gal(b1-4)GlcNAc. The method in brief:
as §1

The target in experiment [3] is Neu5Gc(b2-6)Gal(b1-4)GlcNAc. The method in brief:
as §1

B1: Epa3 (Candida glabrata), Q6VBI8_CANGB (protein)
chain: MGSSHHHHHHSSGLVPRGSHMNDLGFSLFEKRELSSQNPFGYPIGCSPQDVAIIPGLTMELYSYPIVSGTPPNCYDASYVDPEYPRTGYLKRKMVGKSTGVTGNLNYKYSVEKACMVKYGNLPAGYNYNEPLTVSNFTMILYGYFKAQTTGLHTFFVNADDLLYINFGAGNAFDCCKREDSKTKLGEYVAYDIWHVDSSKNKVSLFLEKDLYYPIRMFFNNIGKDSSLDLSFSVNGATDQISDFSGYLYSVPDQPDTCPAHIGYDTTCR
Regarding B1, the results for the “glycan array binding signal (z-score)” value in experiment [1], in experiment [2] and in experiment [3] were -0.19, -0.25 and 0.151, respectively.

These data come from the supplement of paper PMC8728848.
